The list shows a part of the results.
B1: ENSG00000198589:be:win_9351|3pUTR|ENSG00000198589|bound_else_gene|NA|bound_elsewhere_windowed (ssRNA)
RNA: GGGAGUUCUACAGUCCGACGAUCAGCCACUGUUGUUUUGUUGGGGCACCCCCUUCCCUCCCCGGGUUUGCAAAUAGAGGCUACCGGGUGCUGUAUUCAGCAACACCUGUUUUACUAUUUGUUAUUAAACUAUCAUCUCCACCUCAACAGAGGAUUGAGCAUCA
B2: chr2:159349074:159349175:-|CDS|ENSG00000123636|unk|total|mutant (ssRNA)
RNA: GGGAGUUCUACAGUCCGACGAUCUGGUGUGGUUACUUCUAAUAUUCCAUUUACAUCAUCUGUACCCCGUCCCGGAUCGGGGUCCGGGUUAUCAGAAGGAAAUGGUAAUUCAUUCUUGACUUCCAAUGUUGCUUCAAGUAAAAGCAACAGAGGAUUGAGCAUCA
B3: ENSG00000136451:be:win_3001|3pUTR|ENSG00000136451|bound_else_gene|NA|bound_elsewhere_windowed (ssRNA)
RNA: GGGAGUUCUACAGUCCGACGAUCUGGUUUUUUUCAUUUUUUAAUCAUUGCAGUUAAGAGAAAUGGAAAUUAGUUGUGUUAAUCUUGCAGAAUGUUUGCAGGACUGACUAUCAAACUGGAUGAUUUCCAUUUAUACCCUACUGUCAACAGAGGAUUGAGCAUCA
B4: chr10:96238888:96239129:-|three_prime_utr|ENSG00000095585|control|control|control (ssRNA)
RNA: GGGAGUUCUACAGUCCGACGAUCAGUGUGGCCCAACAGGAUCUUCUAAGCCUUUGCAACACAAAGUUUGAUUCCCAGCAAGAUAGCAUCAACCUCAUCUGGAGCUUGUUAGAAAUGCAGAAUCUUGGCCCCACCCUAGAACUACAACAGAGGAUUGAGCAUCA
B5: chr1:153933785:153933886:-|CDS|ENSG00000198837|msi1|total|mutant (ssRNA)
RNA: GGGAGUUCUACAGUCCGACGAUCGGGAAGUUGGUGCAGAGGCUGGGGUCCAUCUUCCCUCAUUCUUUUCUGUGCUGCAGUGACCGAGGCCUUGGGGGUCCUGGAACCCCGGGGAUCACCUGUGCCCUGGCACGAUGGAAGUCUCAACAGAGGAUUGAGCAUCA
B6: chr11:69651622:69651678:+|3pUTR|ENSG00000110092|msi1_unk|total|mutant (ssRNA)
RNA: GGGAGUUCUACAGUCCGACGAUCUUAUACCCCAAUAAUCAACUCGUUUUUAUAUUAAUGUACUUGUUUCUCUGUUGUAAGAACCGGCAUUAACACAAAGGAGGCGUCUCGGGAGAGGAUCCGGUUCCAUCCUUUACGUGUUUACAACAGAGGAUUGAGCAUCA
B7: chrX:14865087:14865190:-|CDS|ENSG00000181544|unk|total|mutant (ssRNA)
RNA: GGGAGUUCUACAGUCCGACGAUCAUAUUUUUUACUAAUCCUUCACAGUACUAAUAAAUUUGAAAUGCGUUUGAGUUUUAAACCCGGCUAUGAGAUGAAGGAUGGCCUAAGGGUCCUUAAUGGCCCUUUAAUUUUAUGGAGGCACAACAGAGGAUUGAGCAUCA
B8: chr3:105576037:105576138:+|3pUTR|ENSG00000170017|msi1|total|mutant (ssRNA)
RNA: GGGAGUUCUACAGUCCGACGAUCCUCCGUUUAAUAAAAGCUUCCGCCGUGCAUUGGUAUGGAUUAAAUGCAUAAAAUAUUCUCCGACUCGAUGCUGUAUAAAAUAUUAUGGGAAAAAAAGAAAAUACGUUAUUUUGCCUCUAACAACAGAGGAUUGAGCAUCA
B9: chr12:39553410:39553513:-|3pUTR|ENSG00000173208|unk|FALSE|unique (ssRNA)
RNA: GGGAGUUCUACAGUCCGACGAUCUAAGAUUCAAACUUUGAGUGACAUUUAGUCCAUUUAUGGUUGAUAUUAGGUUUAAUAGCUAGAAUUCAAAUUGAUUAUUGCUAGUGGCCAACUAAACCUGUACAAAAUAGCUGACAGUUUCAACAGAGGAUUGAGCAUCA
B10: chr6:32841530:32841735:-|CDS|ENSG00000204264|control|control|control (ssRNA)
RNA: GGGAGUUCUACAGUCCGACGAUCACGGGUAGUGGGAACACUUAUGCCUACGGGGUCAUGGACAGUGGCUAUCGGCCUAAUCUUAGCCCUGAAGAGGCCUAUGACCUUGGCCGCAGGGCUAUUGCUUAUGCCACUCACAGAGACCAACAGAGGAUUGAGCAUCA
B11: chr19:45711045:45711146:-|3pUTR|ENSG00000177051|msi1|FALSE|bound_elsewhere (ssRNA)
RNA: GGGAGUUCUACAGUCCGACGAUCGAAUUGGGGGCUGUCAGGUCACAGGUGGGAUCUGGCAUUUUUUUAUGACAGUCCAUUUCUAGAUGGUUUGCCUAUUAAAGAAGUGGGGGGGAAAUACUGUUUUCUCCUUAACCUCAAGCUCAACAGAGGAUUGAGCAUCA
B12: chr1:13115521:13116400:-|CDS|ENSG00000275774|control|control|control (ssRNA)
RNA: GGGAGUUCUACAGUCCGACGAUCGAACAGAGCAAACAAGAGGUAGAGGUGAAAAAUGCUAAGUCAGAAGAGGAGCAGAGCAGUAGCUCCAUGAAGAAAGAUGAGACUCAUGUAAAGAUGGAGUCUGAGGGGGGUGCAGAAGACCAACAGAGGAUUGAGCAUCA
B13: chrX:53432280:53432385:-|CDS|ENSG00000072506|unk|FALSE|unique (ssRNA)
RNA: GGGAGUUCUACAGUCCGACGAUCUGAGAAGGAUGUGCAAACAGCUCUGGCUCUAGCAAAAGGAAAGUUUGGCCGUGUGGAUGUAGCUGUCAACUGUGCAGGCAUCGCGGUGGCUAGCAAGACGUACAACUUAAAGAAGGGCCACAACAGAGGAUUGAGCAUCA
B14: chrX:100644401:100644502:+|5pUTR|ENSG00000102359|unk|FALSE|bound_elsewhere (ssRNA)
RNA: GGGAGUUCUACAGUCCGACGAUCUUAACAGAAUCCCGGAGGCCGGGACAGACCAGGAGCCACUCGUUCUAGGAAUGUUAAAGUAGAAGGUUUUUUCCAAUUGAUGAGAGGAGCAGAGAGGAAGGAGAAAGAGGAGGAGAGAGACAACAGAGGAUUGAGCAUCA

The binders below were run against MSI1 full-length (mouse, UniProt Q61474 1-362) (assay: nsRBNS (natural sequence RNA bind-n-seq); RBNS binding buffer (assumed for nsRBNS): 25 mM Tris pH 7.5, 150 mM KCl, 3 mM MgCl2, 0.01% Triton X-100, 500 ug/ml BSA, 20 U/ml SUPERase-In, 4 C; UNK is unkempt and MSI1 is Musashi-1; names of the RNAs are library labels; protein concentration not given here; high values mean tight binding).
Chain of UniProt Q61474 (Q61474 whole entry): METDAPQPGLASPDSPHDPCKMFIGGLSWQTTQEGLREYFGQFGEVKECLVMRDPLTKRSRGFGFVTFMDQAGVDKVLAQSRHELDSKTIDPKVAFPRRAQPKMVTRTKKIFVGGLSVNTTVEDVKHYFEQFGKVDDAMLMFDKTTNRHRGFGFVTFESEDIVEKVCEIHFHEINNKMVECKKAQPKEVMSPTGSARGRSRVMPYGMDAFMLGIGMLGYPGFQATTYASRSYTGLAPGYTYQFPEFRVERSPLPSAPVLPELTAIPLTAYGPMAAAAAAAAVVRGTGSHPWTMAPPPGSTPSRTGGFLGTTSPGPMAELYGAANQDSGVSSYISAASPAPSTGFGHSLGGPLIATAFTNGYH

| Binder | binding signal |
| --- | --- |
| B1 | 0.837 enrichment R |
| B2 | 0.244 enrichment R |
| B3 | 0.33 enrichment R |
| B4 | 0.628 enrichment R |
| B5 | 0.518 enrichment R |
| B6 | 0.776 enrichment R |
| B7 | 0.443 enrichment R |
| B8 | 0.852 enrichment R |
| B9 | 5.44 enrichment R |
| B10 | 0.269 enrichment R |
| B11 | 0.4 enrichment R |
| B12 | 0.695 enrichment R |
| B13 | 0.452 enrichment R |
| B14 | 1.25 enrichment R |

— publication PMC12136788
